Each structure is given as a SMILES string. Some of the results follow. Repeats are few or missing, and single values can be far off.

Test systems include WM115; WM1716; WM1745; WM3526; WM3619; WM451Lu.
What all share (assay): cell count relative to DMSO control; melanoma cells; higher = more viable cells
What all share (settings): library dose: low library concentration; 72 h
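Further: cell number obtained by counting DAPI-stained nuclei in high-throughput microscope images with image analysis software, screen run in 1,536-well plates.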

For the compound `C[C@]1(O)C[C@@H](c2nc(-c3ccc4ccc(-c5ccccc5)nc4c3)c3c(N)nccn32)C1` + COCC[n+]1c2c(n(Cc3cnccn3)c1C)C(=O)c1ccccc1C2=O [YM155] (first compound 0.4 µM, partner dose 0.0004 µM), the cell count amounted to 106% in the assay on WM115; 107% in the assay on WM1716; 64% with WM1745; 92.2% in the assay on WM3526; 99.6% in the assay with WM3619; 70% in the assay with WM451Lu.

As for `C[C@]1(O)C[C@@H](c2nc(-c3ccc4ccc(-c5ccccc5)nc4c3)c3c(N)nccn32)C1` + CC(C)(C)c1cnc(CSc2cnc(NC(=O)C3CCNCC3)s2)o1 [SNS-032] (first compound 0.4 µM, partner dose 0.01 µM), the cell count in the assay with WM115 stood at 97.9%; in the assay with WM1716, 94.6%; with WM1745, 72%; in the assay with WM3526 it was 84.3%; with WM3619, 92.1%; with WM451Lu, 87.6%.

Consider `C[C@]1(O)C[C@@H](c2nc(-c3ccc4ccc(-c5ccccc5)nc4c3)c3c(N)nccn32)C1` + COc1ccc(-c2ccc3c(N4CCOCC4)nc(N4C[C@@H](C)O[C@@H](C)C4)nc3n2)cc1CO [KU0063794] (first compound 0.4 µM, partner dose 0.02 µM), for which the cell count was determined as 102% in the assay with WM115; 106% in the assay with WM1716; 79.6% with WM1745; 68.2% with WM3526; 98% with WM3619; 93.8% in the assay with WM451Lu.

As for `C[C@]1(O)C[C@@H](c2nc(-c3ccc4ccc(-c5ccccc5)nc4c3)c3c(N)nccn32)C1` + COc1ccc(COc2ccc(Cc3cnc(N)nc3N)cc2OC)cc1 [GW2580] (first compound 0.4 µM, partner dose 1 µM), the cell count was found to be 99.8% with WM115; 106% with WM1716; 73.1% in the assay with WM1745; 86.3% in the assay on WM3526; 103% in the assay with WM3619; 86.6% with WM451Lu.

For the compound `COc1cc([C@@H]2c3cc4c(cc3[C@@H](O[C@@H]3O[C@@H]5CO[C@@H](C)O[C@H]5[C@H](O)[C@H]3O)[C@H]3COC(=O)[C@H]23)OCO4)cc(OC)c1O` [etoposide] + C#Cc1cccc(Nc2ncnc3cc(OCCOC)c(OCCOC)cc23)c1 [erlotinib] (first compound 0.02 µM, partner dose 0.8 µM), the cell count in the assay on WM115 was 75.9%; in the assay on WM1716, 64.4%; with WM1745, 91.3%; in the assay on WM3526, 97.5%; in the assay on WM3619, 82.5%; with WM451Lu it was 94.9%.

Take `C[C@]1(O)C[C@@H](c2nc(-c3ccc4ccc(-c5ccccc5)nc4c3)c3c(N)nccn32)C1` + C=CCNC1=C2C[C@@H](C)C[C@H](OC)[C@H](O)[C@@H](C)/C=C(\C)[C@H](OC(N)=O)[C@@H](OC)/C=C\C=C(/C)C(=O)NC(=CC1=O)C2=O [Tanespimycin] (first compound 0.4 µM, partner dose 0.002 µM): the cell count in the assay on WM115 amounted to 103%; with WM1716 it was 111%; in the assay on WM1745, 81.6%; with WM3526, 75.1%; with WM3619 it was 101%; with WM451Lu, 115%.

`CCN(CC)CCNC(=O)c1c(C)[nH]c(/C=C2\C(=O)Nc3ccc(F)cc32)c1C` [sunitinib] + COc1ccc(-c2ccc3c(N4CCOCC4)nc(N4C[C@@H](C)O[C@@H](C)C4)nc3n2)cc1CO [KU0063794] (first compound 0.4 µM, partner dose 0.02 µM): the cell count in the assay on WM115 is 83.4%; in the assay with WM1716, 127%; in the assay on WM1745, 80.1%; with WM3526, 73.3%; with WM3619 it was 111%; with WM451Lu it was 102%.

As to `C[C@]1(O)C[C@@H](c2nc(-c3ccc4ccc(-c5ccccc5)nc4c3)c3c(N)nccn32)C1` + Cc1ccc(NC(=O)c2cccc(N(C)C)c2)cc1NC(=O)c1ccc(O)cc1 [ZM336372] (first compound 0.4 µM, partner dose 2 µM), the cell count was determined as 131% in the assay on WM115; 101% with WM1716; 74% in the assay on WM1745; 85.2% with WM3526; 90.6% in the assay with WM3619; 90.4% with WM451Lu.

Take `C[C@]1(O)C[C@@H](c2nc(-c3ccc4ccc(-c5ccccc5)nc4c3)c3c(N)nccn32)C1` + Cn1nnc2c(C(N)=O)ncn2c1=O [temozolomide] (first compound 0.4 µM, partner dose 2 µM): the cell count in the assay on WM115 turned out to be 110%; in the assay on WM1716, 73.5%; in the assay on WM1745, 87.1%; in the assay with WM3526, 70.4%; with WM3619, 111%; in the assay on WM451Lu, 95.4%.

Values taken from the supplement of paper PMC4604168 (melanoma cell lines).
